Test results reported in patent US20090111786A1, “Compounds that Prevent Macrophage Apoptosis and Uses Thereof” (priority 2004, published 2009).

System: LPS-dependent gene expression in macrophages
Assay: Microarray analysis of LPS (TLR4)-induced apoptotic gene program
Conditions: 1 μM, 16 h, then LPS 100 ng/ml 6 h
Method: Inc., Farmingdale, N.Y.).
An additional series of microarray experiments was performed to evaluate the influence of LXR activation on regulation of the apoptotic program induced by engagement of TLR4 (FIG. 4). Macrophages were incubated with GW3965 or vehicle for 16 h and then treated with LPS for 6 hours. Of 86 genes with functional annotations linked to apoptosis and expressed in at least one condition, 23 genes were altered more than 1.5-fold by LPS treatment. […] The dominant effect of LXR activation was to counter-regulate a subset of the pro-apoptotic program of gene expression induced by LPS. For example, the LXR agonist attenuated LPS-dependent downregulation of the anti-apoptotic proteins Bcl2, Bag3 and Birc1a. Conversely, LXR activation inhibited LPS-dependent induction of the pro-apoptotic factors Bax, Bak, Bcl211, and caspases 1, 3, 4/11, 7, 8 and 12.
Macrophages were incubated with the LXR agonist GW3965 (1 μM) or vehicle for 16 h prior to treatment with LPS (100 ng/ml) for 6 h. Total RNA was subjected to microarray analysis using Codelink Mouse Uniset 1 microarrays. Relative expression levels for selected categories of pro-apoptotic and anti-apoptotic genes are illustrated. […] FIG. 4a) Anti-apoptotic members of the Bag and Bcl families. FIG. 4b) Pro-apoptotic members of the Bcl family. FIG. 4c) Members of the anti-apoptotic baculovirus IAP repeat-containing (Birc) family. […]

## O=C(O)Cc1cccc(OCCCN(Cc2cccc(C(F)(F)F)c2Cl)CC(c2ccccc2)c2ccccc2)c1 [GW3965]
  LPS-dependent downregulation of anti-apoptotic proteins Bcl2, Bag3 and Birc1a: attenuated
  LPS-dependent induction of pro-apoptotic factors Bax, Bak, Bcl211, caspases 1, 3, 4/11, 7, 8 and 12: inhibited
